The list shows a part of the results. Single values are uncertain, as repeats are few or missing.

Experimental findings from the supplement of paper PMC4604168 (melanoma cell lines) are described below.
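Also: cells treated in 1,536-well plates, then fixed and DAPI-stained, with nuclei counted from automated high-throughput microscope images.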

In the assay the test system is LB2518-MEL. Kind of assay: cell count relative to DMSO control; melanoma cells; higher = more viable cells. The settings on record: library dose: standard library concentration; 72 h.
For the molecule `CO[C@H]1C[C@@H]2CC[C@@H](C)[C@@](O)(O2)C(=O)C(=O)N2CCCC[C@H]2C(=O)O[C@H]([C@H](C)C[C@@H]2CC[C@@H](OCCO)[C@H](OC)C2)CC(=O)[C@H](C)/C=C(\C)[C@@H](O)[C@@H](OC)C(=O)[C@H](C)C[C@H](C)/C=C/C=C/C=C/1C` [everolimus] + COc1cc2ncnc(Nc3ccc(Oc4ccccc4)cc3)c2cc1OC [SrcI1] (first compound 0.1 µM, partner dose 10 µM), the cell count was 86%.

In turn, `CO[C@H]1C[C@@H]2CC[C@@H](C)[C@@](O)(O2)C(=O)C(=O)N2CCCC[C@H]2C(=O)O[C@H]([C@H](C)C[C@@H]2CC[C@@H](OCCO)[C@H](OC)C2)CC(=O)[C@H](C)/C=C(\C)[C@@H](O)[C@@H](OC)C(=O)[C@H](C)C[C@H](C)/C=C/C=C/C=C/1C` [everolimus] + COc1ccc(-c2ccc3c(N4CCOCC4)nc(N4C[C@@H](C)O[C@@H](C)C4)nc3n2)cc1CO [KU0063794] (first compound 0.1 µM, partner dose 0.1 µM) returned a cell count of 49%.

For the molecule `CC(=O)c1c(C)c2cnc(Nc3ccc(N4CCNCC4)cn3)nc2n(C2CCCC2)c1=O` [palbociclib] + COc1ccc(Cl)c(Nc2nc3ccccc3nc2NS(=O)(=O)c2cccc(NC(=O)C(C)(C)N)c2)c1 [XL147] (first compound 0.2 µM, partner dose 4 µM), the cell count came out at 70.2%.

`CC(=O)c1c(C)c2cnc(Nc3ccc(N4CCNCC4)cn3)nc2n(C2CCCC2)c1=O` [palbociclib] + COc1ccc2c(c1)CCC1C2CCC2(C)C(NCCCCCCN3C(=O)C=CC3=O)CCC12 [U73122] (first compound 0.2 µM, partner dose 2 µM) came in with a cell count of 96.6%.

On to `Nc1ccn([C@@H]2O[C@H](CO)[C@@H](O)C2(F)F)c(=O)n1` [gemcitabine] + CO[C@@H]1[C@H](N(C)C(=O)c2ccccc2)C[C@H]2O[C@]1(C)n1c3ccccc3c3c4c(c5c6ccccc6n2c5c31)C(=O)NC4 [Midostaurin] (first compound 0.002 µM, partner dose 0.4 µM), for which the cell count is 59.9%.

`Nc1ccn([C@@H]2O[C@H](CO)[C@@H](O)C2(F)F)c(=O)n1` [gemcitabine] + Cc1nc(Nc2ncc(C(=O)Nc3c(C)cccc3Cl)s2)cc(N2CCN(CCO)CC2)n1 [dasatanib] (first compound 0.002 µM, partner dose 0.02 µM) showed a cell count of 63.8%.

Turning to `CC(=O)O[C@@]12CO[C@@H]1C[C@H](O)[C@@]1(C)C(=O)[C@H](O)C3=C(C)[C@@H](OC(=O)[C@H](O)[C@@H](NC(=O)OC(C)(C)C)c4ccccc4)C[C@@](O)([C@@H](OC(=O)c4ccccc4)[C@H]21)C3(C)C` [Docetaxel] + Cc1cc(Nc2cc(N3CCN(C)CC3)nc(/C=C/c3ccccc3)n2)n[nH]1 [ENMD2076] (first compound 0.0005 µM, partner dose 0.2 µM), the cell count is 43.5%.

As to `CO[C@H]1C[C@@H]2CC[C@@H](C)[C@@](O)(O2)C(=O)C(=O)N2CCCC[C@H]2C(=O)O[C@H]([C@H](C)C[C@@H]2CC[C@@H](OCCO)[C@H](OC)C2)CC(=O)[C@H](C)/C=C(\C)[C@@H](O)[C@@H](OC)C(=O)[C@H](C)C[C@H](C)/C=C/C=C/C=C/1C` [everolimus] + NCC(=O)Nc1ccc(-n2nc(C(F)(F)F)cc2-c2ccc3c(ccc4ccccc43)c2)cc1 [OSU03012] (first compound 0.1 µM, partner dose 5 µM), the cell count came out at 79.2%.

Turning to `CC(=O)c1c(C)c2cnc(Nc3ccc(N4CCNCC4)cn3)nc2n(C2CCCC2)c1=O` [palbociclib] + Oc1cc(-c2nc(-c3ccccc3)[nH]c2-c2ccncc2)ccc1Cl [L779450] (first compound 0.2 µM, partner dose 1 µM), the cell count was found to be 69.1%.

Regarding `Nc1ccn([C@@H]2O[C@H](CO)[C@@H](O)C2(F)F)c(=O)n1` [gemcitabine] + CC1(C)NC(=O)N(c2ccc([N+](=O)[O-])c(C(F)(F)F)c2)C1=O [nilutamide] (first compound 0.002 µM, partner dose 5 µM), the cell count was found to be 72.6%.

As to `CO[C@H]1C[C@@H]2CC[C@@H](C)[C@@](O)(O2)C(=O)C(=O)N2CCCC[C@H]2C(=O)O[C@H]([C@H](C)C[C@@H]2CC[C@@H](OCCO)[C@H](OC)C2)CC(=O)[C@H](C)/C=C(\C)[C@@H](O)[C@@H](OC)C(=O)[C@H](C)C[C@H](C)/C=C/C=C/C=C/1C` [everolimus] + C=CCNC1=C2C[C@@H](C)C[C@H](OC)[C@H](O)[C@@H](C)/C=C(\C)[C@H](OC(N)=O)[C@@H](OC)/C=C\C=C(/C)C(=O)NC(=CC1=O)C2=O [Tanespimycin] (first compound 0.1 µM, partner dose 0.01 µM), the cell count is 48.7%.

As to `CC(=O)O[C@@]12CO[C@@H]1C[C@H](O)[C@@]1(C)C(=O)[C@H](O)C3=C(C)[C@@H](OC(=O)[C@H](O)[C@@H](NC(=O)OC(C)(C)C)c4ccccc4)C[C@@](O)([C@@H](OC(=O)c4ccccc4)[C@H]21)C3(C)C` [Docetaxel] + CC1(C)NC(=O)N(c2ccc([N+](=O)[O-])c(C(F)(F)F)c2)C1=O [nilutamide] (first compound 0.0005 µM, partner dose 5 µM), the cell count came to 34.1%.

Take `CC(=O)c1c(C)c2cnc(Nc3ccc(N4CCNCC4)cn3)nc2n(C2CCCC2)c1=O` [palbociclib] + NCC(=O)Nc1ccc(-n2nc(C(F)(F)F)cc2-c2ccc3c(ccc4ccccc43)c2)cc1 [OSU03012] (first compound 0.2 µM, partner dose 5 µM): the cell count was found to be 52.6%.

Take `Nc1nc(F)nc2c1ncn2[C@@H]1O[C@H](CO)[C@@H](O)[C@@H]1O` [fludarabine] + Nc1cccc2c1CN(C1CCC(=O)NC1=O)C2=O [lenalidomide] (first compound 1 µM, partner dose 5 µM): the cell count is 90.9%.

`CC(=O)O[C@@]12CO[C@@H]1C[C@H](O)[C@@]1(C)C(=O)[C@H](O)C3=C(C)[C@@H](OC(=O)[C@H](O)[C@@H](NC(=O)OC(C)(C)C)c4ccccc4)C[C@@](O)([C@@H](OC(=O)c4ccccc4)[C@H]21)C3(C)C` [Docetaxel] + Oc1cc(-c2nc(-c3ccccc3)[nH]c2-c2ccncc2)ccc1Cl [L779450] (first compound 0.0005 µM, partner dose 1 µM) registered a cell count of 45.1%.

In turn, `Nc1ncn([C@H]2C[C@H](O)[C@@H](CO)O2)c(=O)n1` [decitabine] + CC1(C)NC(=O)N(c2ccc([N+](=O)[O-])c(C(F)(F)F)c2)C1=O [nilutamide] (first compound 0.5 µM, partner dose 5 µM) returned a cell count of 69.5%.

In the case of `CC(=O)O[C@@]12CO[C@@H]1C[C@H](O)[C@@]1(C)C(=O)[C@H](O)C3=C(C)[C@@H](OC(=O)[C@H](O)[C@@H](NC(=O)OC(C)(C)C)c4ccccc4)C[C@@](O)([C@@H](OC(=O)c4ccccc4)[C@H]21)C3(C)C` [Docetaxel] + CN(NC(=O)CC(=O)NN(C)C(=S)c1ccccc1)C(=S)c1ccccc1 [STA4783] (first compound 0.0005 µM, partner dose 0.03 µM), the cell count is 26%.

As for `CC(=O)O[C@@]12CO[C@@H]1C[C@H](O)[C@@]1(C)C(=O)[C@H](O)C3=C(C)[C@@H](OC(=O)[C@H](O)[C@@H](NC(=O)OC(C)(C)C)c4ccccc4)C[C@@](O)([C@@H](OC(=O)c4ccccc4)[C@H]21)C3(C)C` [Docetaxel] + O=C(O)[C@@H]1[O][Sb](=[O])([O][Sb]2(=[O])[O][C@H]([C@H](O)CO)[C@H](O)[C@H](C(=O)O)[O]2)[O][C@H]([C@H](O)CO)[C@@H]1O [stibogluconate] (first compound 0.0005 µM, partner dose 10 µM), the cell count was 39.1%.

Turning to `Nc1ccn([C@@H]2O[C@H](CO)[C@@H](O)C2(F)F)c(=O)n1` [gemcitabine] + O=C(O)C(=O)Nc1sc2c(c1C(=O)O)CCNC2 [TCS401] (first compound 0.002 µM, partner dose 8.33333 µM), the cell count was 72.9%.

`CC(=O)O[C@@]12CO[C@@H]1C[C@H](O)[C@@]1(C)C(=O)[C@H](O)C3=C(C)[C@@H](OC(=O)[C@H](O)[C@@H](NC(=O)OC(C)(C)C)c4ccccc4)C[C@@](O)([C@@H](OC(=O)c4ccccc4)[C@H]21)C3(C)C` [Docetaxel] + C[C@]1(c2nc3c(C(N)=O)cccc3[nH]2)CCCN1 [Veliparib] (first compound 0.0005 µM, partner dose 7 µM) came in with a cell count of 40%.

Consider `CC(=O)c1c(C)c2cnc(Nc3ccc(N4CCNCC4)cn3)nc2n(C2CCCC2)c1=O` [palbociclib] + N#Cc1c(O)c2c(-c3ccc(-c4ccccc4O)cc3)csc2[nH]c1=O [A769662] (first compound 0.2 µM, partner dose 10 µM), for which the cell count turned out to be 74.8%.

As for `Nc1ccn([C@@H]2O[C@H](CO)[C@@H](O)C2(F)F)c(=O)n1` [gemcitabine] + C=CCNC1=C2C[C@@H](C)C[C@H](OC)[C@H](O)[C@@H](C)/C=C(\C)[C@H](OC(N)=O)[C@@H](OC)/C=C\C=C(/C)C(=O)NC(=CC1=O)C2=O [Tanespimycin] (first compound 0.002 µM, partner dose 0.01 µM), the cell count was 55.8%.

Turning to `CC(=O)c1c(C)c2cnc(Nc3ccc(N4CCNCC4)cn3)nc2n(C2CCCC2)c1=O` [palbociclib] + O=C(Nc1cccc(Cl)c1)Nc1ncc(CCNc2ncnc3ccsc23)s1 [SNS314] (first compound 0.2 µM, partner dose 0.004 µM), the cell count was found to be 57.3%.
